Data published in the supplement of paper PMC10369915.
This is one part of the list. Rule as the data show it: active = 3.2 or more and inactive = the rest. Only a few entries rise above the background.

B1: CTNND2_Y1154_P1159S (peptide)
chain: PSRKDYETYQS
B2: CTCF_Y343 (peptide)
chain: VRHRRYKHTHE
B3: CSNK1A1_Y292_YF (peptide)
chain: TLNHQYDFTFD
B4: CSNK1A1_Y294 (peptide)
chain: NHQYDYTFDWT
B5: CSRP3_Y57_YF (peptide)
chain: HESEIYCKVCF
B6: CTNND2_Y1157_P1159S (peptide)
chain: KDYETYQSFQN
B7: CTNS_Y143 (peptide)
chain: WSISFYPQVIM
B8: CTNND2_Y1217 (peptide)
chain: YETSHYPASPD
B9: CTPS1_Y567_S571I (peptide)
chain: SPRDTYSDRIG
B10: CTNND2_Y508_Q507P_YF (peptide)
chain: FRQLPYCPSVE
B11: CTNND2_Y1154 (peptide)
chain: PSRKDYETYQP
B12: CTNNA1_Y222 (peptide)
chain: NVPILYTASQA
B13: CTNND1_Y217_YF (peptide)
chain: GFSRHYEDGFP
B14: CSNK1G1_Y205_R206K (peptide)
chain: KKHIPYKEHKS
B15: CSNK2A1_Y131_L128S_YF (peptide)
chain: QTSTDYDIRFF
B16: CST4_Y35_D36N (peptide)
chain: IPGGIYNADLN
B17: CTNND1_Y213 (peptide)
chain: YPPDGYSRHYE
B18: CSNK1G1_Y205 (peptide)
chain: KKHIPYREHKS
B19: CTNNB1_Y30_G34R (peptide)
chain: WQQQSYLDSRI
B20: CSRP3_Y57_C58G (peptide)
chain: HESEIYGKVCY
B21: CSNK2A3_Y131_I133T_YF (peptide)
chain: QTLTDYDTRFF
B22: CSNK1G2_Y195 (peptide)
chain: GLAKEYIDPET
B23: CTRB2_Y246 (peptide)
chain: TTPAVYARVAK
B24: CTNND1_Y217_Y217C_YF (peptide)
chain: GFSRHCEDGFP
B25: CTNNB1_Y30_I35S (peptide)
chain: WQQQSYLDSGS
B26: CTNND2_Y508 (peptide)
chain: YRQLQYCPSVE
B27: CSRP3_Y57 (peptide)
chain: HESEIYCKVCY
B28: CTNND1_Y221_Y217C (peptide)
chain: HCEDGYPGGSD
B29: CTNNA1_Y177 (peptide)
chain: DLGIQYKALKP
B30: CTNND1_Y221_YF (peptide)
chain: HFEDGYPGGSD
B31: CTNND1_Y213_YF (peptide)
chain: FPPDGYSRHFE
B32: CSNK1A1_Y294_D297H (peptide)
chain: NHQYDYTFHWT
B33: CSNK2A3_Y131_I133T (peptide)
chain: QTLTDYDTRFY
B34: CTNND1_Y217 (peptide)
chain: GYSRHYEDGYP
B35: CTNNB1_Y30_D32G (peptide)
chain: WQQQSYLGSGI
B36: CTNND1_Y213_Y217C_YF (peptide)
chain: FPPDGYSRHCE
B37: CSNK1G2_Y206_E208Q (peptide)
chain: KKHIPYRQHKS

Molecular target: SHP2 C-SH2 domain E139D
Test: enrichment score (SH2-bound / input frequency) (ratio); bacterial display of known human phosphotyrosine sites (pTyr-Var adds point mutants) read by sequencing; higher = stronger binding; tyrosines were phosphorylated by kinases first
Settings: peptide library: pTyr-Var
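Also: displayed peptides selected on beads carrying the immobilized SH2 domain, with library peptides lacking any tyrosine serving as negative controls.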

Binder	enrichment score
B1	inactive: 0.637
B2	inactive: 0.232
B3	inactive: 0.977
B4	inactive: 1.09
B5	inactive: 2.92
B6	inactive: 0.727
B7	inactive: 0.809
B8	inactive: 0.509
B9	inactive: 0.483
B10	inactive: 1.08
B11	inactive: 0.886
B12	inactive: 0.843
B13	inactive: 0.782
B14	active: 5.4
B15	inactive: 0.588
B16	inactive: 1.12
B17	inactive: 0.666
B18	active: 4.93
B19	inactive: 0.781

Binder	enrichment score
B20	inactive: 0.927
B21	inactive: 0.571
B22	inactive: 0.645
B23	inactive: 0.522
B24	inactive: 0.725
B25	inactive: 0.815
B26	inactive: 0.808
B27	active: 3.7
B28	inactive: 0.814
B29	inactive: 0.771
B30	inactive: 0.499
B31	inactive: 0.856
B32	inactive: 1.71
B33	inactive: 0.701
B34	inactive: 0.773
B35	inactive: 0.933
B36	inactive: 0.711
B37	active: 5.27

Molecular target: SHP2 C-SH2 domain wild-type
Test: as above
Settings: peptide library: pTyr-Var

Binder	enrichment score
B1	inactive: 0.671
B2	inactive: 0.173
B3	inactive: 0.846
B4	inactive: 0.902
B5	inactive: 2.82
B6	inactive: 0.761
B7	inactive: 0.929
B8	inactive: 0.491
B9	inactive: 0.472
B10	inactive: 1.25
B11	inactive: 0.653
B12	inactive: 0.866
B13	inactive: 0.781
B14	active: 4.42
B15	inactive: 0.601
B16	inactive: 0.851
B17	inactive: 0.636
B18	active: 4.17
B19	inactive: 0.837

Binder	enrichment score
B20	inactive: 0.958
B21	inactive: 0.704
B22	inactive: 0.833
B23	inactive: 0.914
B24	inactive: 0.82
B25	inactive: 0.894
B26	inactive: 0.796
B27	active: 3.33
B28	inactive: 0.621
B29	inactive: 0.706
B30	inactive: 0.417
B31	inactive: 0.643
B32	inactive: 1.89
B33	inactive: 0.617
B34	inactive: 0.54
B35	inactive: 0.706
B36	inactive: 1.01
B37	active: 4.11

Molecular target: SHP2 N-SH2 domain L43F
Test: as above
Settings: peptide library: pTyr-Var

Binder	enrichment score
B1	inactive: 0.82
B2	inactive: 0.253
B3	inactive: 0.828
B4	inactive: 0.885
B5	active: 3.22
B6	inactive: 0.786
B7	inactive: 0.741
B8	inactive: 0.53
B9	inactive: 0.522
B10	inactive: 0.892
B11	inactive: 0.696
B12	inactive: 0.831
B13	inactive: 0.844
B14	active: 4.8
B15	inactive: 0.622
B16	inactive: 1.13
B17	inactive: 0.627
B18	active: 3.89
B19	inactive: 0.838

Binder	enrichment score
B20	inactive: 0.922
B21	inactive: 0.874
B22	inactive: 0.584
B23	inactive: 0.691
B24	inactive: 0.678
B25	inactive: 1.05
B26	inactive: 0.777
B27	active: 3.36
B28	inactive: 0.723
B29	inactive: 0.773
B30	inactive: 0.54
B31	inactive: 0.707
B32	inactive: 2.28
B33	inactive: 0.635
B34	inactive: 0.604
B35	inactive: 0.775
B36	inactive: 0.736
B37	active: 4

Molecular target: SHP2 N-SH2 domain T42A
Test: as above
Settings: peptide library: pTyr-Var

Binder	enrichment score
B1	inactive: 0.716
B2	inactive: 0.238
B3	inactive: 0.752
B4	inactive: 1.11
B5	inactive: 2.93
B6	inactive: 0.841
B7	inactive: 0.737
B8	inactive: 0.623
B9	inactive: 0.317
B10	inactive: 1
B11	inactive: 0.394
B12	inactive: 0.78
B13	inactive: 0.616
B14	active: 4.09
B15	inactive: 0.446
B16	inactive: 1.18
B17	inactive: 0.672
B18	active: 3.51
B19	inactive: 0.773

Binder	enrichment score
B20	inactive: 0.672
B21	inactive: 0.62
B22	inactive: 0.56
B23	inactive: 0.692
B24	inactive: 0.614
B25	inactive: 0.622
B26	inactive: 0.708
B27	active: 3.26
B28	inactive: 0.921
B29	inactive: 0.645
B30	inactive: 0.508
B31	inactive: 0.734
B32	inactive: 2.09
B33	inactive: 0.609
B34	inactive: 0.555
B35	inactive: 0.885
B36	inactive: 0.618
B37	active: 3.72

Molecular target: SHP2 N-SH2 domain T52S
Test: as above
Settings: peptide library: pTyr-Var

Binder	enrichment score
B1	inactive: 0.584
B2	inactive: 0.246
B3	inactive: 1.03
B4	inactive: 0.839
B5	active: 3.37
B6	inactive: 0.851
B7	inactive: 0.731
B8	inactive: 0.419
B9	inactive: 0.616
B10	inactive: 0.927
B11	inactive: 0.67
B12	inactive: 0.873
B13	inactive: 0.686
B14	active: 4.66
B15	inactive: 0.485
B16	inactive: 1.1
B17	inactive: 0.585
B18	active: 3.82
B19	inactive: 0.721

Binder	enrichment score
B20	inactive: 0.895
B21	inactive: 0.731
B22	inactive: 0.73
B23	inactive: 0.572
B24	inactive: 0.63
B25	inactive: 0.754
B26	inactive: 0.653
B27	active: 4.05
B28	inactive: 0.728
B29	inactive: 0.743
B30	inactive: 0.55
B31	inactive: 0.865
B32	inactive: 1.86
B33	inactive: 0.769
B34	inactive: 0.56
B35	inactive: 0.684
B36	inactive: 0.799
B37	active: 4.37

Molecular target: SHP2 N-SH2 domain wild-type
Test: as above
Settings: peptide library: pTyr-Var

Binder	enrichment score
B1	inactive: 0.751
B2	inactive: 0.225
B3	inactive: 0.913
B4	inactive: 0.795
B5	inactive: 2.66
B6	inactive: 1.14
B7	inactive: 1.03
B8	inactive: 0.465
B9	inactive: 0.747
B10	inactive: 1.33
B11	inactive: 0.743
B12	inactive: 0.851
B13	inactive: 0.849
B14	active: 4.18
B15	inactive: 0.842
B16	inactive: 1.16
B17	inactive: 0.367
B18	active: 3.81
B19	inactive: 0.733

Binder	enrichment score
B20	inactive: 0.733
B21	inactive: 0.641
B22	inactive: 0.847
B23	inactive: 0.518
B24	inactive: 0.827
B25	inactive: 0.823
B26	inactive: 0.836
B27	inactive: 2.89
B28	inactive: 0.63
B29	inactive: 0.83
B30	inactive: 0.534
B31	inactive: 0.943
B32	inactive: 1.73
B33	inactive: 0.644
B34	inactive: 0.561
B35	inactive: 0.923
B36	inactive: 0.827
B37	active: 3.71
